Assay results: the supplement of paper PMC12217912
The list shows a part of the results. The full chains were built here from the parent and the listed change. Inactive controls read about 0.05.

B1: TEV protease; numbered along this chain (parent)
chain: MGESLFKGPRDYNPISSSICHLTNESDGHTTSLYGIGFGPFIITNKHLFRRNNGTLVVQSLHGVFKVKDTTTLQQHLVDGRDMIIIRMPKDFPPFPQKLKFREPQREERICLVTTNFQTKSMSSMVSDTSCTFPSGDGIFWKHWIQTKDGQCGSPLVSTRDGFIVGIHSASNFTNTNNYFTSVPKNFMELLTNQEAQQWVSGWRLNADSVLWGGHKVFMVKPEEPFQPVKEATQL

Variants of: B1
Test: raw area under fraction-flipped curve 0-4 h after induction (AUC4h, not background-subtracted), DNA-recorder readout of cleavage of the substrate (dimensionless); higher = more cleavage of the substrate by the protease variant
Conditions: temperature: 34 °C; time window: 0-4 h after rhamnose induction
Experimental: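 In vivo DNA recorder in E. coli TOP10(DE3) ΔrhaA at 34 °C. Each TEVp single-site mutant (parent TEVp 0) is paired with a single-site variant of the 7-mer TEVs (canonical ENLYFQ|S). The substrate sits between flexible linkers in a Bxb1-sfGFP-TEVs-SsrA fusion, so cleavage stabilises Bxb1 and speeds flipping of a recombination array, read by NGS. The value is the raw area under the fraction-flipped curve over 0-4 h after rhamnose induction (AUC4h), with ≥20 reads per time point. It is not background-subtracted; inactive controls average about 0.047.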
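Note: Bxb1 expression induced with 0.2% (w/v) L-rhamnose at OD600 near 0.5, cultures sampled hourly, flipped fraction per protease–substrate barcode pair counted by paired-end Illumina sequencing.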

Variant	area with substrate ENLYFAS	area with substrate ENLYFDS	area with substrate ENLYFES	area with substrate ENLYFFS	area with substrate ENLYFGS	area with substrate ENLYFHS	area with substrate ENLYFIS	area with substrate ENLYFKS	area with substrate ENLYFLS	area with substrate ENLYFMS	area with substrate ENLYFNS	area with substrate ENLYFPS	area with substrate ENLYFRS	area with substrate ENLYFSS	area with substrate ENLYFWS	area with substrate ENLYFCS	area with substrate ENLYFYS	area with substrate ENLYFTS	area with substrate ENLYFVS
L77I	0.067	0.0723	0.0547	0.0453	0.0592	0.0568	0.0597	0.0556	0.0686	0.0559	0.0638	0.0563	0.0562	0.0575	0.048	–	–	–	–
V78P	0.0526	0.0686	0.0622	0.0704	0.0619	0.0565	0.0535	0.0557	0.0526	0.0607	0.0568	0.0582	0.0551	0.0733	0.055	0.057	0.0431	–	–
V78W	0.0782	–	0.0576	0.0685	–	0.0495	0.0551	0.077	–	0.0545	0.0589	0.0529	0.0619	0.0584	0.0619	0.0598	0.0546	0.0618	0.0633
V78Y	0.0293	0.0534	0.0579	0.0637	–	–	0.0603	0.0603	–	–	0.0565	–	0.0569	–	0.0582	0.0534	0.0549	–	0.0586
R81C	0.0466	0.0547	0.0522	0.0709	0.034	0.0564	0.0643	0.0643	–	0.059	0.065	0.0618	0.0571	0.0543	–	0.0693	0.0581	0.0521	0.0628
D82K	0.0699	–	0.0503	0.0626	–	–	0.0618	0.06	–	0.0539	–	–	0.0589	–	0.0584	–	0.0559	0.0536	–
D82N	0.0585	0.0678	0.0551	0.0746	–	–	0.0443	0.0557	0.0615	0.0631	0.0633	–	0.0594	0.0606	–	0.0599	–	0.109	–
I84E	0.0389	–	0.0532	0.0717	0.0548	0.0646	0.0486	0.0567	0.0524	0.0446	0.0516	0.0524	0.0438	0.0436	0.0202	–	0.05	–	–
I84G	0.0451	0.0559	0.0543	0.0608	0.0419	0.0566	0.0536	–	0.0613	0.063	0.0397	0.0515	0.0427	0.0527	–	–	0.0456	0.0518	0.0459
I86V	0.0574	0.0497	0.0615	0.0721	0.06	–	0.0537	0.0547	–	0.0722	0.0662	0.0602	0.0469	–	0.0603	0.0562	0.055	0.0646	0.0454
P89N	0.0494	0.0464	–	0.0741	–	0.068	0.0651	0.0642	–	0.063	0.0624	–	–	–	0.052	–	0.0348	0.0488	0.0452
P89S	0.0543	0.052	0.068	0.0727	–	0.0538	0.0573	–	0.0553	0.0639	0.0694	0.0601	0.0683	0.0641	0.0378	0.064	0.054	0.06	0.0339
K90W	0.0364	0.0646	0.0718	0.0982	–	0.0639	0.0526	–	–	0.0509	0.065	0.0598	0.0609	0.0607	0.0543	0.0623	0.0623	–	0.0515
P93M	0.0394	0.108	0.0547	0.12	0.0649	–	0.0272	0.0798	0.0999	0.0726	0.0625	0.0578	0.0777	0.0838	0.0569	–	–	0.0673	0.048
K98A	0.0746	0.111	0.0547	0.0601	–	–	0.0567	0.0656	–	–	–	0.0617	–	–	0.0746	0.057	0.0365	0.06	–
K98C	0.0579	–	0.0669	0.0678	–	0.0999	0.0583	0.0638	0.0558	0.0695	0.0599	0.0545	–	0.0559	0.0553	0.0575	0.0656	0.0677	0.0533
K98L	0.0691	–	0.0847	0.0695	–	0.0455	0.0639	–	–	0.0592	0.0632	0.0592	–	0.054	0.0487	–	0.0691	0.0544	0.0548
L99D	0.0472	–	–	0.0711	0.0443	0.0578	0.0477	0.0608	–	0.0402	–	0.044	–	–	0.0594	0.0451	–	–	–
R102H	0.0445	–	0.0547	0.0481	0.0549	–	0.0472	0.0373	0.0652	0.0548	0.059	0.0428	0.0551	0.0337	0.0646	0.0501	0.0429	0.052	0.044
Q105R	0.0576	0.069	0.0622	0.0607	–	0	0.063	0.0621	0.085	0.0635	0.0583	0.0568	0.0649	0.0646	0.0671	0.0609	0.0508	0.0598	0.0988
E107Y	0.0587	0.0561	0.0639	0.0542	0.0435	0.0671	0.0465	–	–	0.0644	–	–	–	0.061	0.0768	0.0541	–	0.0526	0.0546
E108A	0.0559	–	0.0567	0.0624	–	0.0588	0.0545	0.0582	0.0556	0.0569	–	0.0534	0.0466	–	0.0535	0.0468	0.0677	0.0589	0.0557
R109I	0.0896	–	0.0624	0.0657	–	0.0572	0.0517	–	0.0286	0.054	0.0698	0.058	0.0604	0.0668	0.0478	0.0565	0.0575	0.0637	0.0572
R109Q	0.108	–	–	0.0741	–	0.058	0.0701	0.0676	0.0674	0.0746	0.072	0.0625	0.0446	–	–	0.0631	–	0.0526	–
